The other results are listed elsewhere or left out.
Legend:
HSkMC = human skeletal muscle cells; test: cytotoxicity call (relative viability < 0.9); settings: 10 µM
HepG2 = test: cytotoxicity call (relative viability < 0.9); settings: 10 µM
S. aureus RN4220 = test: growth inhibition call (relative growth <= 0.2); settings: 50 µM

Question: Which cytotoxicity call (HSkMC) does the source give for `COCCNC(=O)C[C@@H]1CC[C@H]2[C@@H](COc3ccc(NS(=O)(=O)c4ccc(Cl)cc4)cc3C(=O)N2C)O1` here?
Answer: inactive

Question: And the cytotoxicity call (HepG2)?
Answer: inactive

Question: What about the growth inhibition call (S. aureus RN4220) of the same compound?
Answer: inactive

Question: How did the cytotoxicity call (HSkMC) turn out when `C[C@@H]1CCCCO[C@H](CN(C)Cc2ccncc2)[C@@H](C)CN([C@H](C)CO)C(=O)c2cc(NC(=O)Nc3ccc(F)cc3)ccc2O1` was run?
Answer: inactive

Question: And the cytotoxicity call (HepG2)?
Answer: inactive

Question: What about the growth inhibition call (S. aureus RN4220) of the same compound?
Answer: inactive

Question: With `C[C@@H]1CN([C@H](C)CO)C(=O)c2cc(NC(=O)Nc3ccc4c(c3)OCO4)ccc2O[C@@H]1CN(C)Cc1ccc(-c2ccccc2)cc1` as the compound, how does the cytotoxicity call (HSkMC) read?
Answer: inactive

Question: What about the cytotoxicity call (HepG2) of the same compound?
Answer: active

Question: And the growth inhibition call (S. aureus RN4220)?
Answer: inactive

Question: Which cytotoxicity call (HSkMC) does the source give for `COc1ccc2c3c([nH]c2c1)[C@H](CO)N(C[C@]13CN(C1)S(=O)(=O)C)C(=O)C1CCOCC1` here?
Answer: inactive

Question: What about the cytotoxicity call (HepG2) of the same compound?
Answer: inactive

Question: And the growth inhibition call (S. aureus RN4220)?
Answer: inactive
